53 compounds from ChEMBL document CHEMBL4888484, “Replenishing the malaria drug discovery pipeline: Screening and hit evaluation of the MMV Hit Generation Library 1 (HGL1) against asexual blood stage Plasmodium falciparum ,using a nano luciferase reporter read-out” (2022) can be followed below.

Molecules are shown by their SMILES. Out of some 150,000 compounds screened, about 540 (0.36%) showed an effect of 50% or more. Some of the results follow.

The test system of this test is Plasmodium falciparum. Put plainly: Primary screen in NF54 nanoGlo assay, in single point, at 2uM, 72h; a lower Z score goes with more inhibition. The class given is functional, Erythrocyte. As to conditions: timepoint 72 hour.
Turning to `O=C(Cc1cccs1)N1CCCn2cc(-c3ccccc3F)nc21`, the “% Inhibition” value is reported as -5% and the Z score worked out at 0.9.

Consider `CN(CC(=O)O)c1ncc(CN2CCC[C@H](C(C)(C)C)CC2)cn1`, for which the “% Inhibition” value is given as -5% and the Z score was 0.77.

For `Clc1cccc(-c2n[nH]c3c2CN(Cc2cccc4c2OCO4)CC3)c1`, the “% Inhibition” value stood at 11% and the Z score was -1.6.

In the case of `O=C(NCc1ccc2c(c1)OCO2)[C@@H]1CCN(c2ccc(F)cc2F)C1=O`, the “% Inhibition” value is listed as -11% and the Z score was 2.09.

Regarding `CC(C)(C)OC(=O)N1CCC(CC(=O)NCc2nccnc2-c2ccoc2)CC1`, the “% Inhibition” value is on record as 21% and the Z score was -2.64.

As to `Cc1cc(N2C[C@@H](C)[C@](C)(C(=O)O)C2)nc(C2CC2)n1`, the “% Inhibition” value was -11% and the Z score came out at 1.

`CCOCCc1nnc([C@H]2CCO[C@@H]2c2ccccc2)[nH]1`: the “% Inhibition” value was 5% and the Z score is -0.83.

On to `Cc1ccc(NC(=O)Cn2cnc3nc4c(cc3c2=O)CCCC4)cc1`, for which the “% Inhibition” value is -3% and the Z score is 0.49.

Consider `Cc1nc2c(s1)[C@@H](NCCCNC(=O)c1occc1C)CCC2`, for which the “% Inhibition” value was 8% and the Z score is -1.07.

Take `CC(C)CCNS(=O)(=O)c1cccc(Br)c1`: the “% Inhibition” value is listed as -19% and the Z score amounted to 2.97.

Consider `Cn1nc(-c2ccc(F)cc2)cc1C(=O)NCC1CCN(C(=O)c2cc3ccccc3o2)CC1`, for which the “% Inhibition” value is on record as -5% and the Z score is given as 0.57.

Regarding `O=C1NC(=O)c2cc(S(=O)(=O)Nc3cccc4[nH]ncc34)ccc21`, the “% Inhibition” value came out at 3% and the Z score is on record as -0.49.

For `CCN1C[C@]2(CCCN(S(=O)(=O)c3c(C)nn(C)c3Cl)C2)CCC1=O`, the “% Inhibition” value was 0% and the Z score turned out to be 0.01.

For `CCNC(=O)NCCOC(=O)c1cccc(C)c1Cl`, the “% Inhibition” value is reported as 37% and the Z score is given as -1.23.

As to `O=S1(=O)CC[C@H](c2nnc(C3(c4cccc(Br)c4)CCOCC3)o2)C1`, the “% Inhibition” value is -2% and the Z score was found to be 0.33.

Take `N#Cc1ncn(CCOCCOc2ccccc2)n1`: the “% Inhibition” value is on record as -18% and the Z score came to 2.49.

As to `CN(C)C(=O)N(CCNC(=O)Cc1cccc(Cl)c1)C1CCOCC1`, the “% Inhibition” value is recorded as -2% and the Z score is on record as 0.35.

As for `O=C(NCCC1=CCCCC1)C(F)(F)C(F)(F)C(=O)NCCC1=CCCCC1`, the “% Inhibition” value is recorded as -5% and the Z score was 0.69.

`Cc1ccc(F)c(CC(=O)N2C[C@H](c3cnn(C)c3)C(C)(C)C2)c1`: the “% Inhibition” value came to 7% and the Z score is given as -1.04.

Turning to `CC(=O)NCc1csc([C@H]2CCCN(S(=O)(=O)c3ccc(C)c(C)c3)C2)n1`, the “% Inhibition” value is -10% and the Z score came to 1.19.

As to `Cn1nc(C(=O)Nc2cccc(F)c2)c(=O)c2ccccc21`, the “% Inhibition” value is recorded as -7% and the Z score came to 0.86.

On to `CN(C(=O)[C@@H]1CCCN1C(=O)c1ccccn1)c1ccccc1F`, for which the “% Inhibition” value was determined as 3% and the Z score is -0.49.

On to `COC(=O)C1CCN2C(=O)N(c3cc(C)c(Cl)c(C)c3)C(=O)C2C1` (stereo unspecified), for which the “% Inhibition” value is on record as -11% and the Z score stood at 1.6.

Turning to `Cc1ccc([C@H](CNC(=O)COc2ccccc2C)N2CCN(C)CC2)o1`, the “% Inhibition” value was 3% and the Z score was -0.44.

Consider `Cc1cc(O)nc(N(C)Cc2ccccc2)n1`, for which the “% Inhibition” value is reported as -8% and the Z score worked out at 1.45.

In the case of `O=C1CN(S(=O)(=O)c2ccc(C(=O)NCCc3c[nH]c4ccccc34)cc2)CCN1`, the “% Inhibition” value was -8% and the Z score is on record as 0.82.

For the compound `NC(=O)NCC(=O)N(Cc1cccc(Br)c1)CC1CC1`, the “% Inhibition” value is -11% and the Z score came out at 1.75.

As to `CCc1nc(C)ncc1C(=O)N1CCCCCCC1`, the “% Inhibition” value stood at 1% and the Z score is recorded as -0.1.

`Cn1cnc2c(N3CCN(CC4CC4)CC3)nccc21`: the “% Inhibition” value is 3% and the Z score is recorded as -0.43.

For `Cc1cc(Nc2ccc(F)cc2C)n2nc(-c3ccco3)nc2n1`, the “% Inhibition” value was 5% and the Z score was -0.71.

Take `O=C(c1cc2c(s1)CCC2)N1CCCc2ccccc21`: the “% Inhibition” value is 1% and the Z score is listed as -0.11.

Regarding `CC(C)(C)OC(=O)Oc1cccc(CC#N)c1`, the “% Inhibition” value is given as -15% and the Z score is on record as 2.79.

With `Cc1ccc2c(c1)c(-c1ccccc1)c(-c1ccccc1)n2C[C@@H](O)CNCCCO`, the “% Inhibition” value amounted to 1% and the Z score is on record as -0.17.

On to `CCCN(CC(=O)Nc1cc(N2CCN(C(=O)NC(C)C)CC2)ccc1Cl)C(=O)C1CCC1`, for which the “% Inhibition” value is recorded as -12% and the Z score came out at 1.84.

On to `CCO[C@H](c1noc(Cc2csc(C3CC3)n2)n1)C1CCCC1`, for which the “% Inhibition” value was -1% and the Z score is listed as 0.19.

Regarding `Cc1nc2cc(C(=O)N(CCN(C)C)C[C@H]3CCCO3)ccc2s1`, the “% Inhibition” value is reported as -21% and the Z score is recorded as 1.94.

`Cc1[nH]ncc1CNC(=O)[C@H]1CCN(c2cnn(Cc3ccccc3)c(=O)c2)C1`: the “% Inhibition” value is on record as 6% and the Z score is -0.93.

As for `CCCc1nc(C(=O)NC[C@H]2CCCN(C(=O)c3n[nH]c(=O)[nH]3)C2)cs1`, the “% Inhibition” value is given as -8% and the Z score was 1.07.

Take `CC(=O)N1CCc2cc(S(=O)(=O)Oc3cc(C)ccc3C)ccc21`: the “% Inhibition” value is reported as -6% and the Z score turned out to be 1.06.

Take `CC(C)C1CN(C(=O)CC2COC(=O)C2)C1C(C)C` (stereo unspecified): the “% Inhibition” value is recorded as -4% and the Z score is recorded as 0.5.

`O=C1NCC[C@@H]1NS(=O)(=O)CC1CCCC1`: the “% Inhibition” value was -15% and the Z score came to 1.93.

Consider `CCOC(=O)N1CCC(NC2CC3CCC2C3)CC1` (stereo unspecified), for which the “% Inhibition” value is given as 4% and the Z score was -0.56.

`CC1(C)[C@H](CNc2ncnc3[nH]ncc23)C1(F)F`: the “% Inhibition” value is listed as -7% and the Z score is listed as 0.73.

With `C[C@H]1CNCCN1C(=O)c1cc(Oc2ccccc2)ccn1`, the “% Inhibition” value is -11% and the Z score was 1.57.

`CCC[C@H]1CCc2ccccc2N1C(=O)c1ccc(=O)n(C)c1`: the “% Inhibition” value is 5% and the Z score is -0.49.

As to `COc1cccc(CO[C@@H]2CN(C(=O)CCc3cnccn3)CC(=O)N(CC(C)C)C2)c1`, the “% Inhibition” value is listed as 0% and the Z score is listed as 0.01.

As for `CC(C)c1cc(CN(C)C(=O)Cn2cnc3ccccc3c2=O)on1`, the “% Inhibition” value came to 13% and the Z score is recorded as -2.27.

For `COc1ccc(CN2CCC[C@H](c3nnc(CN4CCCC4)n3C)C2)cc1`, the “% Inhibition” value was 0% and the Z score is given as -0.05.

For the compound `Cc1cccc([C@@H](NC(=O)N2CCC(CO)CC2)c2cccs2)c1`, the “% Inhibition” value is given as -9% and the Z score is 1.31.

As for `O=C(CCN1CCC[C@H](CNC(=O)c2ccc(F)cc2F)C1)Nc1cccnc1`, the “% Inhibition” value was -10% and the Z score is reported as 1.24.

In the case of `CCCOc1ccc(CNC2CCC3(CC2)C(=O)Nc2ccccc23)cn1` (stereo unspecified), the “% Inhibition” value turned out to be 3% and the Z score is recorded as -0.4.

Turning to `C[C@@]1(C(=O)NC2CCCCCC2)Cn2c(ccc2-c2ccccc2)C(=O)N1Cc1ccccc1F`, the “% Inhibition” value is recorded as -8% and the Z score was found to be 0.99.

For the compound `CC(C)N(Cc1cc(-c2ccccc2)[nH]n1)C(=O)[C@@H]1CCCCO1`, the “% Inhibition” value is given as -6% and the Z score worked out at 1.07.
